Over roughly 33,000 sequences, “E-score (-0.5 to 0.5)” has its median near -0.032; the highest 2% begin near 0.36. The list shows a part of the results.
Each sequence was assayed against T1, Sko1 (UniProt Q02100) (assay: PBM E-score (8-mer binding enrichment) (E-score (-0.5 to 0.5)); higher = stronger / more preferred TF binding; most listed sequences are background and not binding sites). Details: protein concentration: 200 nM; construct: GST-full length.
T1 sequence: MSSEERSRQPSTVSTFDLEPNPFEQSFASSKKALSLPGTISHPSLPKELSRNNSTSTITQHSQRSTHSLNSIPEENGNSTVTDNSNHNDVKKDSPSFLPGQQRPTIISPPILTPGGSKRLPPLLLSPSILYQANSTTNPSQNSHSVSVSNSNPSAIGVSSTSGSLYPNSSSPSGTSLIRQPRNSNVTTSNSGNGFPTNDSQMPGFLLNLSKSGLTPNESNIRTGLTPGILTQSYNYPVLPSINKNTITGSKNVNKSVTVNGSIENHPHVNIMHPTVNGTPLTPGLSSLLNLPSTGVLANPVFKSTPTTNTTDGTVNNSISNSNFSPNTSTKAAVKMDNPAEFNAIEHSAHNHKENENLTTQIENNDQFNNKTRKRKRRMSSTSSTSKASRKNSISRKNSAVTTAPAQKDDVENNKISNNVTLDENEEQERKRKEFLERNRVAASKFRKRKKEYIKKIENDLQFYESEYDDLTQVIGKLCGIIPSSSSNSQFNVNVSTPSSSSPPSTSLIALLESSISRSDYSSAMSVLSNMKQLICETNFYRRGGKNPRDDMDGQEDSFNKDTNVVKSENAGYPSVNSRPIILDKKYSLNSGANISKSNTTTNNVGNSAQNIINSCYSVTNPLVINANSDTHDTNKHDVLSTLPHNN
Method in brief: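 The E-score, a modified Wilcoxon-Mann-Whitney statistic, was computed by the Universal PBM Analysis Suite for every ungapped eight-base word pooled with its reverse complement. Scans behind it were normalised with masliner after bound GST-tagged yeast transcription factors were detected with fluorescent anti-GST. The proteins, at about 100-200 nM, had been applied to universal all-10-mer Agilent arrays made double-stranded by primer extension.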

| Sequence | PBM E-score |
| --- | --- |
| ACAAAAAA | 0.221 |
| CTCGCCTA | -0.276 |
| CACTGTCA | 0.0185 |
| CAGGAAAA | 0.0768 |
| CGCGAGAA | -0.118 |
| AGCCTCAT | -0.194 |
| ATCTCATC | 0.0651 |
| AAGGACTT | -0.275 |
| CATGGTTA | 0.143 |
| CGAACCCA | -0.131 |
| AAACTCTC | -0.0431 |
| CTGTACGA | 0.0985 |
| AGTGTGAG | -0.0189 |
| CGCCACCG | -0.141 |
| CAAATCCA | -0.00817 |
| ATTGGCGA | -0.0227 |
| GTTTAGGA | -0.00127 |
| AAGGGTCT | -0.179 |
| ACCAGTAG | -0.246 |
| CTTGGATA | -0.0507 |
| AATCACCT | 0.125 |
| AGAGCGGA | -0.0828 |
| AGCAGAGC | -0.184 |
| AGGACGTC | 0.363 |
| CCTCTAAA | -0.149 |

| Sequence | PBM E-score |
| --- | --- |
| AGCATCTC | -0.176 |
| ACAATGCC | -0.113 |
| GCCTTGCA | -0.133 |
| ATAAAGGG | -0.176 |
| GCACAAAA | 0.0976 |
| CTCGCAAA | -0.0485 |
| GTCCCTAA | -0.221 |
| GACTGTAC | -0.031 |
| CACCATCG | -0.14 |
| ACCCTCTC | -0.327 |
| CCTGGGAA | -0.193 |
| CCGATTCG | 0.0836 |
| ACGGTCAA | 0.0587 |
| ATAACCCG | -0.201 |
| AACGATAA | 0.026 |
| CATTACGA | 0.398 |
| CGTCATCC | 0.475 |
| AAAGGATC | -0.0203 |
| CCTGATCA | -0.141 |
| AACGTTAG | 0.176 |
| GGGTACTA | -0.00254 |
| CACTCCTA | 0.0413 |
| TCCGCACA | -0.111 |
| CGTGGCGA | 0.0528 |
| ATAAAAAA | 0.178 |

| Sequence | PBM E-score |
| --- | --- |
| CTAAATTC | 0.203 |
| CGGTTCAC | -0.233 |
| AAGACGTA | 0.454 |
| AAGCGGAT | -0.256 |
| GACTAAGA | -0.00186 |
| ATGAGGTA | 0.335 |
| ATCAGTTA | 0.159 |
| ACGATGAT | 0.246 |
| AGGTGGAT | -0.228 |
| CTTTTCTA | -0.186 |
| CTTCTAAA | 0.0729 |
| TAGACTGA | -0.0827 |
| CGATCCAG | -0.0419 |
| GTTCGGCA | -0.0573 |
| ACTCACCA | 0.0298 |
| ACGCTGAG | -0.173 |
| AAAATACC | 0.146 |
| AAGACCCC | -0.274 |
| TAATGGAA | 0.153 |
| CGAATCAC | 0.0177 |
| AAGGAACC | -0.127 |
| AAAAGTAT | 0.189 |
| GTGTTCTA | 0.0982 |
| ACGGCGTA | 0.212 |
| ATTTGAGA | 0.0882 |

| Sequence | PBM E-score |
| --- | --- |
| AGCAAGCT | -0.228 |
| AATCAACC | -0.0815 |
| AGAAGTGC | -0.24 |
| AACCTCGA | -0.0258 |
| CTAAGAGC | -0.148 |
| AAGCCGAC | -0.319 |
| AGGCCCAC | -0.287 |
| AACTTGGA | -0.0527 |
| ACTTCCGA | -0.111 |
| CCACCTCC | -0.322 |
| CGTTCAGC | 0.00494 |
| GAATACGC | 0.3 |
| ACCGTCAA | 0.00527 |
| AACCGCGA | 0.169 |
| AGGGCGAC | -0.2 |
| GGGATGAC | 0.197 |
| TCACCGCA | -0.00518 |
| CCAGCTGG | -0.225 |
| CGTCATAG | 0.483 |
| GAACATAA | 0.119 |
| TCGGGTAA | -0.114 |
| CGGCCTGC | -0.204 |
| GCCTAAAC | -0.138 |
| ATGGCCGA | -0.0453 |
| GGCGGCAA | -0.257 |

| Sequence | PBM E-score |
| --- | --- |
| GCGGAGAC | 0.0155 |
| AGCGCGTG | 0.0652 |
| AGTAGTGC | -0.202 |
| CGGAAGCC | -0.209 |
| AGTGGCGA | -0.126 |
| GCAACATA | 0.106 |
| GTGTCTGA | -0.0146 |
| GTGTCCTA | -0.0305 |
| GCGAAGAA | -0.00349 |
| ATTCCACG | 0.0997 |
| TGACACCA | 0.0833 |
| TCGAATAA | 0.0835 |
| CGCCCAAG | -0.294 |
| CTCGGTCC | -0.158 |
| CCAGACAC | -0.175 |
| CATCGCCC | -0.0666 |
| CTAAACTA | -0.0161 |
| CGGTTACA | 0.0784 |
| CATTACCC | -0.0584 |
| CGTGATAG | 0.181 |
| TGATTAAA | 0.191 |
| ACCGAGAT | -0.203 |
| ACAGGCTA | -0.205 |
| ATTTTAAG | 0.165 |
| CATTTTCG | 0.164 |

| Sequence | PBM E-score |
| --- | --- |
| AAGGGCGT | -0.151 |
| AGGTAACG | -0.0561 |
| CACTCTCG | 0.108 |
| GGATAGAA | -0.00286 |
| CCTGCGAG | -0.15 |
| GCTAGACA | -0.0062 |
| GCCCTGCA | -0.302 |
| CGGCTGTA | -0.14 |
| AGACGTAA | 0.447 |
| AACCGAAG | 0.00243 |
| AAGATACC | -0.0424 |
| CTCCTGAA | -0.0557 |
| ATCCATTG | -0.0529 |
| GGCATGGA | -0.134 |
| CTGAATGC | -0.0683 |
| AGCGCCAG | -0.198 |
| ACTCAGGC | -0.117 |
| CCTGTCAA | -0.0383 |
| AGCACCCT | -0.356 |
| GTTATGTA | 0.17 |
| TCCAGGGA | -0.168 |
| CACACTCC | -0.0125 |
| ACAGGGCG | -0.14 |
| AGGAGCTG | -0.187 |
| AAGGGCGA | -0.229 |

| Sequence | PBM E-score |
| --- | --- |
| ATCCCGTG | 0.0438 |
| AACATATC | 0.0715 |
| GCTCGGGA | -0.176 |
| CGGGAGAC | -0.136 |
| GATACGTA | 0.48 |
| ATGTGTGA | 0.08 |
| ATCTTTCC | 0.0653 |
| AAGTAATC | 0.132 |
| AGTGAAAG | 0.0502 |
| CAAGGTCA | -0.144 |
| ATTCTCGC | -0.177 |
| CCATGCCA | -0.16 |
| CAAACTAG | -0.182 |
| ATGAACAT | 0.108 |
| CAGGATAG | -0.101 |
| AGGTGCCC | -0.257 |
| GAACAGTC | -0.191 |
| ATCTTGGC | -0.119 |
| AGAAAGAG | -0.257 |
| CCCGTTTC | -0.349 |
| TACGCATA | 0.368 |
| CTTGTCGC | -0.183 |
| TATCGAAA | 0.156 |
| ACTGAGAT | 0.0107 |
| AGGGAACA | -0.0852 |

| Sequence | PBM E-score |
| --- | --- |
| AACTAAAG | 0.228 |
| AAATATGG | 0.0165 |
| CTTGGGCC | -0.209 |
| ATCAAGGG | 0.00668 |
| CAGGATTA | 0.101 |
| GTATCAAC | 0.0145 |
| ACGACGAT | 0.127 |
| CGAGCACC | -0.2 |
| CCTGACTC | -0.238 |
| CAGAGATG | 0.151 |
| CATCTTCA | -0.108 |
| GCCCATCA | -0.185 |
| AGACCTTC | -0.174 |
| AACTGAAA | 0.113 |
| CTCTCGCA | -0.299 |
| CCCAAGAC | -0.0563 |
| GCGCCCGC | -0.165 |
| GCGATCCC | -0.26 |
| CATCGGTC | -0.235 |
| CCAGCGCG | -0.0549 |
| GCAAGAAC | 0.174 |
| TCAATTGA | 0.113 |
| CAGAAATA | 0.168 |
| CTCCGAAG | -0.216 |
| AACGGCAC | -0.155 |

| Sequence | PBM E-score |
| --- | --- |
| GAGCTCGA | 0.0595 |
| ATGCCCTC | -0.0747 |
| CCTTTGTC | -0.223 |
| ATCATCGC | 0.185 |
| CTACAGAA | 0.0374 |
| CCCTTGTA | -0.0784 |
| TCCGGGAA | -0.161 |
| CAGAGATC | -0.178 |
| TAGGCACA | -0.00902 |
| GTGATTTA | 0.177 |
| AATCGTGG | 0.143 |
| CCCTCACG | -0.0248 |
| AATTTTTG | 0.246 |
| AGACGACG | 0.185 |
| ATCCAGTA | 0.0121 |
| GCATGCCC | 0.0522 |
| AAAAGGAG | -0.207 |
| GGGTTGAC | -0.115 |
| AAGTCAAA | 0.13 |

From the supplement of paper PMC3334620
